# Some of the results follow.
# B1: Cohesin-hDCIR (Homo sapiens) (protein)
# chain: LDDLDAVRIKVDTVNAKPGDTVRIPVRFSGIPSKGIANCDFVYSYDPNVLEIIEIEPGDIIVDPNPDKSFDTAVYPDRKIIVFLFAEDSGTGAYAITKDGVFATIVAKVKEGAPNGLSVIKFVEVGGFANNDLVEQKTQFFDGGANVGDTTEPATPTTPVTTPTTTDDLDAASQKYSQLLEKKTTKELVHTTLECVKKNMPVEETAWSCCPKNWKSFSSNCYFISTESASWQDSEKDCARMEAHLLVINTQEEQDFIFQNLQEESAYFVGLSDPEGQRHWQWVDQTPYNESSTFWHPREPSDPNERCVVLNFRKSPKRWGWNDVNCLGPQRSVCEMMKIHLHHHHHH
# Key:
# Test in all cases: glycan array binding signal (z-score within array); higher = stronger binding
# Settings in all cases: glycan notation: IUPAC condensed, linker removed
# Neu5Ac(a2-8)Neu5Ac = molecular target: Neu5Ac(a2-8)Neu5Ac
# How it was run: (§1)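 The Consortium for Functional Glycomics database supplied 3228 glycan arrays, of which those lacking an available protein sequence were dropped. The binding signal, a within-array Z-score, was averaged across arrays of the same protein sequence and across linkers. Negative scores can be read as non-binding.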
# [1] = molecular target: Neu5Ac(a2-8)Neu5Ac(a2-3)Gal(b1-3)GalNAc(b1-4)[Neu5Ac(a2-3)]Gal(b1-4)Glc
# How it was run: as §1
# [2] = molecular target: Neu5Ac(a2-8)Neu5Ac(a2-3)Gal(b1-3)GalNAc(b1-4)[Neu5Ac(a2-8)Neu5Ac(a2-3)]Gal(b1-4)Glc
# How it was run: as §1
# [3] = molecular target: Neu5Ac(a2-8)Neu5Ac(a2-3)Gal(b1-4)Glc
# How it was run: as §1
# [4] = molecular target: Neu5Ac(a2-8)Neu5Ac(a2-3)Gal(b1-4)GlcNAc
# How it was run: as §1
# [5] = molecular target: Neu5Ac(a2-8)Neu5Ac(a2-3)[Gal(b1-3)GalNAc(b1-4)]Gal(b1-4)Glc
# How it was run: as §1
# [6] = molecular target: Neu5Ac(a2-8)Neu5Ac(a2-3)[GalNAc(b1-4)]Gal(b1-4)Glc
# How it was run: as §1
# [7] = molecular target: Neu5Ac(a2-8)Neu5Ac(a2-8)Neu5Ac
# How it was run: as §1
# [8] = molecular target: Neu5Ac(a2-8)Neu5Ac(a2-8)Neu5Ac(a2-3)Gal(b1-4)Glc
# How it was run: as §1
# [9] = molecular target: Neu5Ac(a2-8)Neu5Ac(a2-8)Neu5Ac(a2-3)[Gal(b1-3)GalNAc(b1-4)]Gal(b1-4)Glc
# How it was run: as §1
# [10] = molecular target: Neu5Ac(a2-8)Neu5Ac(a2-8)Neu5Ac(a2-3)[GalNAc(b1-4)]Gal(b1-4)Glc
# How it was run: as §1
# [11] = molecular target: Neu5Ac(a2-8)Neu5Ac(a2-8)Neu5Ac(a2-8)Neu5Ac(a2-3)[GalNAc(b1-4)]Gal(b1-4)Glc
# How it was run: as §1
# [12] = molecular target: Neu5Ac(a2-8)Neu5Gc(a2-3)Gal(b1-4)GlcNAc
# How it was run: as §1
# [13] = molecular target: Neu5Ac(b2-6)Gal(b1-4)GlcNAc
# How it was run: as §1
# Neu5Ac(b2-6)GalNAc = molecular target: Neu5Ac(b2-6)GalNAc
# How it was run: as §1
# [14] = molecular target: Neu5Ac9Ac(a2-3)Gal(b1-3)GlcNAc
# How it was run: as §1
# [15] = molecular target: Neu5Ac9Ac(a2-3)Gal(b1-4)GlcNAc
# How it was run: as §1
# [16] = molecular target: Neu5Ac9Ac(a2-6)Gal(b1-4)GlcNAc
# How it was run: as §1
# [17] = molecular target: Neu5Gc(a2-3)Gal(b1-3)GlcNAc
# How it was run: as §1
# [18] = molecular target: Neu5Gc(a2-3)Gal(b1-3)[Fuc(a1-4)]GlcNAc
# How it was run: as §1
# Neu5Gc(a2-3)Gal(b1-4)Glc = molecular target: Neu5Gc(a2-3)Gal(b1-4)Glc
# How it was run: as §1
# [19] = molecular target: Neu5Gc(a2-3)Gal(b1-4)GlcNAc
# How it was run: as §1
# [20] = molecular target: Neu5Gc(a2-3)Gal(b1-4)GlcNAc(b1-3)Gal(b1-4)GlcNAc(b1-2)Man(a1-3)[Neu5Gc(a2-3)Gal(b1-4)GlcNAc(b1-3)Gal(b1-4)GlcNAc(b1-2)Man(a1-6)]Man(b1-4)GlcNAc(b1-4)GlcNAc
# How it was run: as §1
# [21] = molecular target: Neu5Gc(a2-3)Gal(b1-4)[Fuc(a1-3)]GlcNAc
# How it was run: as §1
# [22] = molecular target: Neu5Gc(a2-6)Gal(b1-4)GlcNAc
# How it was run: as §1
# Neu5Gc(a2-6)GalNAc = molecular target: Neu5Gc(a2-6)GalNAc
# How it was run: as §1
# [23] = molecular target: Neu5Gc(a2-8)Neu5Ac(a2-3)Gal(b1-4)GlcNAc
# How it was run: as §1
# [24] = molecular target: Neu5Gc(a2-8)Neu5Gc(a2-3)Gal(b1-4)GlcNAc
# How it was run: as §1
# [25] = molecular target: Neu5Gc(a2-8)Neu5Gc(a2-3)Gal(b1-4)GlcNAc(b1-3)Gal(b1-4)GlcNAc
# How it was run: as §1
# [26] = molecular target: Neu5Gc(a2-8)Neu5Gc(a2-6)Gal(b1-4)GlcNAc
# How it was run: as §1
# [27] = molecular target: Neu5Gc(b2-6)Gal(b1-4)GlcNAc
# How it was run: as §1
binder,measurement,setting,value
B1,glycan array binding signal (z-score),Neu5Ac(a2-8)Neu5Ac,-0.297
same,glycan array binding signal (z-score),[1],-0.571
same,glycan array binding signal (z-score),[2],0.241
same,glycan array binding signal (z-score),[3],-0.547
same,glycan array binding signal (z-score),[4],-0.016
same,glycan array binding signal (z-score),[5],-0.636
same,glycan array binding signal (z-score),[6],0.046
same,glycan array binding signal (z-score),[7],-0.514
same,glycan array binding signal (z-score),[8],-0.675
same,glycan array binding signal (z-score),[9],0.099
same,glycan array binding signal (z-score),[10],-0.163
same,glycan array binding signal (z-score),[11],0.019
same,glycan array binding signal (z-score),[12],-0.364
same,glycan array binding signal (z-score),[13],-0.634
same,glycan array binding signal (z-score),Neu5Ac(b2-6)GalNAc,-0.673
same,glycan array binding signal (z-score),[14],1.61
same,glycan array binding signal (z-score),[15],-0.625
same,glycan array binding signal (z-score),[16],-0.23
same,glycan array binding signal (z-score),[17],-0.174
same,glycan array binding signal (z-score),[18],0.79
same,glycan array binding signal (z-score),Neu5Gc(a2-3)Gal(b1-4)Glc,-0.517
same,glycan array binding signal (z-score),[19],0.071
same,glycan array binding signal (z-score),[20],0.537
same,glycan array binding signal (z-score),[21],-0.308
same,glycan array binding signal (z-score),[22],0.072
same,glycan array binding signal (z-score),Neu5Gc(a2-6)GalNAc,1.31
same,glycan array binding signal (z-score),[23],-0.614
same,glycan array binding signal (z-score),[24],-0.662
same,glycan array binding signal (z-score),[25],-0.023
same,glycan array binding signal (z-score),[26],-0.56
same,glycan array binding signal (z-score),[27],-0.457

# — the supplement of paper PMC8728848
